# Data reported in patent publication US20250179172A1 (HAINAN SIMCERE ZAIMING PHARMACEUTICAL, published 2025).
# B1: H65 scFv-hFc (Fc fusion)
# chain: NIQLVQSGPELKKPGETVKISCKASGYTFTNYGMNWVKQAPGKGLRWMGWINTHTGEPTYADDFKGRFAFSLETSASTAYLQINNLKNEDTATYFCTRRGYDWYFDVWGAGTTVTVSSGGGGSGGGGSGGGGSDIKMTQSPSSMYASLGERVTITCKASQDINSYLSWFHHKPGKSPKTLIYRANRLVDGVPSRFSGSGSGQDYSLTISSLDYEDMGIYYCQQYDESPWTFGGGTKLEMK[human IgG1 Fc with changes not printed]
# notes: also called H65 antibody
# B2: S005-NB144-43 VHH-hFc (Fc fusion)
# chain: QVQLVESGGGLVQPGGSLRLSCAASGFTWDYYAIGWFRQAPGKEREGVSCIDSSGGSINYLDSVKGRFTVSRDNAKNTVYLQMDSLKPEDTAIYYCAASSYWDCAVPDTGSPKTGHLESYFGSWGQGTQVIVSS[human IgG1 Fc with changes not printed]
# notes: VHH fused to human IgG1 Fc; no linker stated; also called S002-NB144-43
# B3: S005-NB144-73 VHH-hFc (Fc fusion)
# chain: EVQVVESGGGLVQAGGSLRLSCAASGDTICISAMYWYRQAPGKAREMVAAITSGGSTYYEDSVMGRFTIFRENAKNTVYLQMNSLKPEDTAVYYCNADIAGHNCSGYLKEYWGQGTQVTVSA[human IgG1 Fc with changes not printed]
# notes: VHH fused to human IgG1 Fc; no linker stated; also called S002-NB144-73
# B4: S005-NB145-3 VHH-hFc (Fc fusion)
# chain: QVQLVESGGGLVQPGGSLRLSCAASGFSLDYYAIGWFRQAPGKEREGVSYISPSDGRTYYADSVKGRFTISRDNAKNTVYLQMNSLKPEDTAVYYCATDWGSTSFDYGLKLSPTQYGYWGQGTQVTVSS[human IgG1 Fc with changes not printed]
# notes: VHH fused to human IgG1 Fc; no linker stated
# B5: S005-NB145-92 VHH-hFc (Fc fusion)
# chain: EVQLVESGGGLVQPGGSLRLSCAASGFSLDYYAIGWFRQAPGKEREGVSYISASDGSTYYADSVKGRFTISRDNAKNTVYLQMNSLKPEDTAVYYCATDWGSGSFNYGLRLSPTQYDYWGQGTQVTVSS[human IgG1 Fc with changes not printed]
# notes: as for B4
# B6: S005-NB145-22 VHH-hFc (Fc fusion)
# chain: QVQLVESGGGLVQAGGSLRLSCAVSGRTLSTVVVGWFRQTPGREREFVAVSRSGGATGYADSVKDRFTISRDNAKNTVALQMNSLKPEDTAVYYCAGRGSGLYGSSWYNQIQEYDGWGQGTQVTVSS[human IgG1 Fc with changes not printed]
# notes: as for B4
# B7: S005-NB145-74 VHH-hFc (Fc fusion)
# chain: EVQLVESGGGLVQAGGSLRLSCAASESTFSITAMGWYRQAPGKQRELVAAITSPGGSTNYADSVKGRFTISRDNAKNTMLLQMNSLKPEDTAVYYCNADINHGSGYYTVSWGQGTQVTVSS[human IgG1 Fc with changes not printed]
# notes: as for B4
# B8: S005-NB144-4 VHH-hFc (Fc fusion)
# chain: EVQVVESGGGLVQAGGSLRLSCAASGSIFSINAMGWYRQAPGKEREVVAAISNGGNTYYEDSVMGRFTISRDNAKGTLYLQMNGLKPEDTAVYYCNADTVVGGGLLTEVWGQGTLVTVSS[human IgG1 Fc with changes not printed]
# notes: as for B4
# B9: S005-NB144-3 VHH-hFc (Fc fusion)
# chain: QLQLVESGGGLVQPGGSLRLSCAASGFTFSSYAMSWYRQAPGKERELVAAITSAGGSTTYADSVKDRFTISRDNAKNTVSLQMNSLKPEDTAVYYCNAYCTGYVCHEGGYDYWGQGTQVTVSS[human IgG1 Fc with changes not printed]
# notes: VHH variable region recombined into vector BI3.4-huIgG1 with signal peptide and human IgG1 Fc; no linker between VHH and Fc is stated
# B10: S005-NB144-6 VHH-hFc (Fc fusion)
# chain: QVQLVESGGGLVQAGGSLRLSCAASGSIFSISVMGWYRQAPGKERETVAVISSGGSTYYADSVKGRFTISRDNAKNTLYLQMNSLKPEDTAVYYCNADFETASGSPLYESWGQGTQVTVSS[human IgG1 Fc with changes not printed]
# notes: as for B4
# B11: S005-NB144-7 VHH-hFc (Fc fusion)
# chain: EVQVVESGGGLVQAGGSLRLSCAASGSIFSINLLGWYRQAPGKERESVAILSSGGSTYYADSVKGRFTISRDNVKNMLYLQMNSLKPEDTAVYYCNAVGGIATLRDYWGQGTQVTVSS[human IgG1 Fc with changes not printed]
# notes: as for B4
# B12: S005-NB144-31 VHH-hFc (Fc fusion)
# chain: EVQVVESGGGLVQPGGSLRLSCAASGFTLDYYAIGWFRQAPGKEREGLSCISTSGGSTNYADSVKGRFTISRDNAKNTVYLQMNSLKPEDTAVYYCAASSFWDCAVVGTGSPKTGHLESVFGSWGQGTQVTVSS[human IgG1 Fc with changes not printed]
# notes: VHH fused to human IgG1 Fc; no linker stated; also called S002-NB144-31
# Molecular target: T1, human CD5, full length, on cells (Jurkat, endogenous; CHO-K1-human CD5, transfected) (human, UniProt P06127 25-495)
# T1 construct: Jurkat cells carry the endogenous protein; also called hCD5; CHO-K1-hCD5-2B2
# T1 sequence: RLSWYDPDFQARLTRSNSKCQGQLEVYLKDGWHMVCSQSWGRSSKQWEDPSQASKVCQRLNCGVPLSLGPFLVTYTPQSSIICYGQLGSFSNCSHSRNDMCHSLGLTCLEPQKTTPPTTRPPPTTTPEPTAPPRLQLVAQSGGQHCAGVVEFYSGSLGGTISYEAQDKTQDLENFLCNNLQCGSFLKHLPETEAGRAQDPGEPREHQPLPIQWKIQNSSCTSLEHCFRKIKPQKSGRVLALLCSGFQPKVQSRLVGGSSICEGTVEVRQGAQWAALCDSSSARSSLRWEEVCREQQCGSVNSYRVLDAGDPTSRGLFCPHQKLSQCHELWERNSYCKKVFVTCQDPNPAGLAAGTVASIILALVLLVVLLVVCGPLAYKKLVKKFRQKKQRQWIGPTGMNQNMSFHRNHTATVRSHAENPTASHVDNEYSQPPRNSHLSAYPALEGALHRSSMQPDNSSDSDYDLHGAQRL
# Experiment: FACS on Jurkat cells
# Description: The results were assayed and analyzed by FACS (FACS Canto™, purchased from BD Biosciences) using the antibody H65 as a primary antibody (working concentration: 100 nM) and an Alexa Flour488-labeled secondary antibody (purchased from Invitrogen, Cat. No. A11013).
row,Binder,EC50 (read off the curve) [nM]
1,B1,~0.2

# Molecular target: T2, murine CD5-His (Sino Biologicals, Cat. No. 50403-M08H) (murine, UniProt P13379 24-371)
# T2 construct: also called murine CD5 protein; not shown: His tag
# T2 sequence (looked up): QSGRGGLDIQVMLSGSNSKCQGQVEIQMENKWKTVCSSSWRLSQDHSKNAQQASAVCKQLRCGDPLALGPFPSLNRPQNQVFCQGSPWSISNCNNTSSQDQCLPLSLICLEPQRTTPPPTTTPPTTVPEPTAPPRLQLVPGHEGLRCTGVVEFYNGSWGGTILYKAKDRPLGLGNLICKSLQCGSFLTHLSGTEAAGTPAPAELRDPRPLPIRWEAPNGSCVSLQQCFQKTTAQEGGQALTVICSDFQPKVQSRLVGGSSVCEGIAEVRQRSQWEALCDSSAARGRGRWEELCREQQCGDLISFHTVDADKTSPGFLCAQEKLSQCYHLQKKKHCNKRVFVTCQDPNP
# Experiment: ELISA on murine CD5-His, antibody 0.01 nM
# Description: (§1) The binding activity of the H65 antibody prepared above with human CD5 protein was subjected to ELISA assay. A purchased commercial antigen (human CD5-His) was diluted with PBS to obtain a final concentration of 2 μg/mL, and then added to a 96-well ELISA plate with 100 µL/well. The plate was sealed with a plastic film and incubated at 4° C. over the night, washed twice with PBS in the next day, added with a blocking solution [PBS+2% (w/w) BSA] and blocked at room temperature for 2 h. The blocking solution was drained out, and 100 nM of the H65 antibody or negative control antibody hIgG1 after gradient dilution was added, namely, the obtained product was the antibody Anti-HEL-hIgG1 against hen egg lysozyme (purchased from Biointron, Cat. No. B117901) with 50 μl per well. After incubation for 2 h at 37° C., the plate was washed for 3 times with PBS. A secondary antibody labeled with HRP (horseradish peroxidase) (A0170, purchased from Sigma) was added. After incubation for 2 h at 37° C., the plate was washed for 5 times with PBS. A TMB substrate was added with 50 μL/well and incubated at room temperature for 30 min, then a stop solution (1.0 N HCl) was added with 50 μL/well.
# To assay the species cross-activity of the VHH-hFc, ELISA plates were coated with commercial murine CD5-His (CD5 (Sino Biologicals, Cat. No. 50403-M08H)), and ELISA assays were performed according to the method described in Example 2.2. […] The negative control is hIgG1 and NB145 serves as the positive control (NB145 has been verified to be bound to murine CD5); data in the table are values of OD_{450 nm}.
row,Binder,OD450 [OD450]
1,B2,0.09
2,B3,0.09
3,B4,0.09
4,B5,0.11
5,B6,0.09
6,B7,0.13
7,B8,0.08
8,B9,0.09
9,B10,0.09
10,B11,0.09
11,B12,0.09

# Molecular target: T3, human CD5 (Arg25-Pro372)-His protein (Acro, Cat. No. CD5-H52H5) (human, UniProt P06127 25-372)
# T3 construct: range 25-372; also called human CD5-His; hCD5-His; not shown: His tag
# T3 sequence (looked up): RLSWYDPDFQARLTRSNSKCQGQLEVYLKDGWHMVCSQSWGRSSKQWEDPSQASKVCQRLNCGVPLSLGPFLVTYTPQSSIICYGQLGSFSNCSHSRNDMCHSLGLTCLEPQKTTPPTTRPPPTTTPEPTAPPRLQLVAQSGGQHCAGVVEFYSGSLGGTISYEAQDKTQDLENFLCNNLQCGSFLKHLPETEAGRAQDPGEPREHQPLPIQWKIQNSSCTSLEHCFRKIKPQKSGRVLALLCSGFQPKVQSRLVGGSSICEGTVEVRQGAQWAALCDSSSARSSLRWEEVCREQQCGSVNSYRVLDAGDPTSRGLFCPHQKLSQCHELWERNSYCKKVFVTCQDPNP
# Experiment: ELISA, plate coated with human CD5-His
# Description: as §1
row,Binder,EC50 (read off the curve) [nM]
1,B1,~0.03
